# The shares of active, inactive and inconclusive entries below differ from those in the screen. Calls follow the shape of the dose curve; as a rule, active = well fitted inhibition curve with a large enough effect; inconclusive = small, poorly fitted or top-dose-only effect; inactive = flat fitted curve, though single readings scatter. Potencies of inconclusive entries are doubtful fits and often do not repeat.
# Experiment: Primary qHTS for inhibitors of nuclear receptor binding SET domain protein 2 (NSD2) in an isogenic RCH-ACV NSD2 p.E1099K mutant (9B) (AID 1645876); also: nearly all actives have a fitted effect of over 70% in size
# Settings: RCH-ACV (leukaemia line) NSD2 E1099K (9B) viability, CellTiter-Glo, 72 h; series mostly up to 44.9 µM
# Potency is read from the fitted curve at half-maximal effect; tags tell the direction and shape of the fitted curve.
smiles,measurement,value
CCOc1ccc(Oc2ccc(OCc3cc(F)ccc3F)cc2)c(N)c1,Potency,"inconclusive: 16.3 µM [inhibitor, single point]"
